Test results as given in the RNAGym collection of RNA variant scans (doi:10.7554/elife.90254).
The source gives no read counts; variants with many changes may rest on few reads.

B1: LINE1-mini (parent)
chain: GGCAGAGCUCAACACAGCGUGGCAAAGUGGCUGUGGCUAGACUGCC

Variants of: B1
Test: self-cleavage, relative activity (ratio to wild type); higher = more cleavage; in vitro, sequencing; the parent is a self-cleaving ribozyme

Row | Variant | self-cleavage
1 | GGCAGAGCUCAACACAGCGUGCAAAAGUGGCUGUUGCUUGACUGCA [G22C C23A G35U A39U C46A] | 0.07
2 | GAAAGAGCUCAACACAGCCUGGCAAAGUGGCUGUGGCUAGACUGCC [G2A C3A G19C] | 0.67
3 | GGCAGGGCUCAACGCGGCGUGGCAAAGUGGCUGUGGCUAGACUGCC [A6G A14G A16G] | 0
4 | GGCAGAGCUCAACAUAGCGUAGCAGAGUGGCUGAGGCUAGACUGCC [C15U G21A A25G U34A] | 0.06
5 | GACAGAGCUCAAUACAGCGUGGCAAAGUGGCUGUGGCUAGACUGGC [G2A C13U C45G] | 0.2
6 | GGCAGAGCUCAACAUAGCGUGACAAAGCGGCUGUGGCUAGACUUCC [C15U G22A U28C G44U] | 0.04
7 | GGCAGAGAUCAACAUAGCGUGGCAAGGUGGCUGUGGCUAGAGUGGC [C8A C15U A26G C42G C45G] | 0.15
8 | GGCAAAGGUCAACACAGCGUGGCAAAGUGCCUGUGGCUAGACUGCC [G5A C8G G30C] | 0.02
9 | GGCAGAGCUAAACACAGCGUGGUAAAGUGGAUCUGGCUAGAAUGCC [C10A C23U C31A G33C C42A] | 0.02
10 | GGCAGAGCUCAACGCAGCUUGGCAAAGUGGCUAUGGCUGGACUGCC [A14G G19U G33A A39G] | 0.06
11 | GGCAGAGCUCAACAAAGCGUGGCAAAGUGGUUGUGGCUAGACGGCC [C15A C31U U43G] | 0.01
12 | GGCAGAGCUCAACCCAGCGUGGCAAAGUGGAUGUAGCUAGACUGCC [A14C C31A G35A] | 0.02
13 | GGCAGAGCUGAACACUGUGUGGCAAAGUGUCUGUGGCUAGAUUGCC [C10G A16U C18U G30U C42U] | 0.01
14 | AGCAGUGCUCAACACAGCGUGGCAAUGUGCCUGUGGGUAGACUGCC [G1A A6U A26U G30C C37G] | 0.31
15 | GGUAGAGAUCAACACAGCCUUGCAAAGUGGCUGUGGCUAGACUGCG [C3U C8A G19C G21U C46G] | 0.03
16 | GGCAGAGCUCAGCACAGCGUGGCAAAGAGGCUGUGGCUUGACUGCU [A12G U28A A39U C46U] | 0.03
17 | GGCAGUGCUGAACACAACGUGGCAAAGUGGAUAAGGCUAGUCUGCC [A6U C10G G17A C31A G33A U34A A41U] | 0.01
18 | GGCAGAGCUUACCACAGCGUGGCAAAGUGGCUGUGGGUAGACUGCC [C10U A12C C37G] | 0.01
19 | GGCUGAGCUCAACACAGCGUGUCAUAGUGGAUGUGGCUAUACUGCC [A4U G22U A25U C31A G40U] | 0.11

Row | Variant | self-cleavage
20 | GCCAGAGCUAAACACAGCGUGGCAAAGUGUCUGUGGCUAGACUGCC [G2C C10A G30U] | 0.03
21 | GGCAGAGCUCAACUCAGCGUGGCAAUGUGGCUGUCGCUAUACUGCC [A14U A26U G35C G40U] | 0.1
22 | GGCAUAGCUCAGCACAGCGUGGCAAAGUGGCUGUUGCUAGACCGCC [G5U A12G G35U U43C] | 0
23 | AGCAAAGUUCAACACAGCGUGGCAAAGUGGCUGUGGCUAGACUGCC [G1A G5A C8U] | 1.91
24 | GGGAGAGCUCAGCACGGCGUUGAAAAGUGGCUUUGUUAAGACUGCC [C3G A12G A16G G21U C23A G33U G36U C37U U38A] | 0.09
25 | GGGAAAGCUCAACACAGCGUGGUAAAGUGGCUGUGGCUAGACUGCC [C3G G5A C23U] | 0.17
26 | GGCAGUGCACAACACAGCGUUGCAAACUGGCUGUGGCUAGACUGCC [A6U U9A G21U G27C] | 0.08
27 | GGCAGAGCUGAACACAGCGUGGUAAAGUGGCUUUGGCUAGUCUGCC [C10G C23U G33U A41U] | 0.01
28 | GGCAGAACUCAACCCAGCGUGGCAAAGUCGCUGUGGCUAGGCUGCU [G7A A14C G29C A41G C46U] | 0
29 | GGCAAAGCUCAACACAGCGUGGCAUACUGGGUGUGGCGCGACUGCC [G5A A25U G27C C31G U38G A39C] | 0.28
30 | GGCAGAGCUCAACACAGCGAGGCCUAGUGGCUGUGGCUAGACUGCC [U20A A24C A25U] | 0.54
31 | GGCAGAGGUAAACACAGCGUGGCAAAGUGGCUGUGGAUAGACUGCC [C8G C10A C37A] | 0.03
32 | GGCAGAGCACAACACCGCGUGGCAAAGUGGCUGUGGCUACACUGCA [U9A A16C G40C C46A] | 0.07
33 | GGCAGAGCCUAACACAGCGUGGCAAAGUGGCUGUGGCUAGACUGAC [U9C C10U C45A] | 0.03
34 | GGCAGAGCUCAACACAGCGUGGCAAACUGGCUGUCGCGAGACUGCC [G27C G35C U38G] | 0.05
35 | GGGAGAGCUCAACACAGAAUGGCAAAGUGGCGGUUCCUAGACUGCC [C3G C18A G19A U32G G35U G36C] | 0.01
36 | GGCAGAACUCAACACAGCGUGGCAGAAUGGCUGUGGCUAGGCUGCC [G7A A25G G27A A41G] | 0.14
37 | GGCAGAGCUUAACACAGCGAGGCAUAGUGGCUGGGGCUAGACUGCC [C10U U20A A25U U34G] | 0.31
38 | GGCAGAGCUCAACAGAGCGUGACUAACUGGCUGUGGCUAAACUGCC [C15G G22A A24U G27C G40A] | 0.02

Row | Variant | self-cleavage
39 | GGCAGAGCUCAAGACAGCGAGGCACAGUGGUUGUGGCUAGACUGCC [C13G U20A A25C C31U] | 0.03
40 | GGCACAUCUCAACAGAGCGUAGCAAAGUGGCUGUGGCGAGACUGAC [G5C G7U C15G G21A U38G C45A] | 0.01
41 | GGUAGAGCUCAGCACAGCGUGGCAAUGUGGCUGUGGCCACACUGCC [C3U A12G A26U U38C G40C] | 0.05
42 | GGCAGAGCUCGACACAGCGUGGCAAAGUGGCUGUGUCUAGAAUGCC [A11G G36U C42A] | 0.04
43 | GGCAGAGCUCAACACAGCGUGGCAUAGUGGCGGUGGCUACACUGCC [A25U U32G G40C] | 0
44 | GGCAGAGCUAAACACAGCGUGGCAAAGUGGUUGUGGCUUAACUGCC [C10A C31U A39U G40A] | 0.06
45 | AGCAGAGCUCAACACAGCGUGGCAAAGUGGCUGUGGCUAAACUGCA [G1A G40A C46A] | 0.17
46 | GGCAGAGCUCAACGCAGCGUGGCACAGGGGCUGUGGCUAGACUGCC [A14G A25C U28G] | 0.19
47 | GGCAGAGAUCCGCACAGCGUGGCAAAGUAGCUGUGUCUACAGUGCC [C8A A11C A12G G29A G36U G40C C42G] | 0.01
48 | GGCAGAGCUCAGCACAGCGUUGCAUAGUGGCUGUGGCUAGACUGCC [A12G G21U A25U] | 0.02
49 | GGCAGAGUUCAACACAGCUUGGCGAAGUGGCUGUGGCUAGACUGCC [C8U G19U A24G] | 0.24
50 | GGCAGAGUUCAACACAGCGUGUCAAACUGGCUGUGGCUAGACUGCC [C8U G22U G27C] | 0.15
51 | GACAGAGCACAACACACCGUGGCAAAGUGGCUGUGGCUAGACUGCC [G2A U9A G17C] | 0.26
52 | UGCAGAGCUCAACACAGCGUGGCGAAGUGGCUGUGACUAGGCUGCC [G1U A24G G36A A41G] | 0.04
53 | GGCAGAGCUAAACACAGCGUGGCAAAGUGGCUGUGGUUAGACUCAC [C10A C37U G44C C45A] | 0.04
54 | GGCAGAGCGUAACACAGCGUGGCAAAGUGACUGUGGCUAGCCUGCC [U9G C10U G30A A41C] | 0
55 | GGCAGAGCUCAACACAGCGUGGCAAAGCGGCUGUGUCAAGAUUGCC [U28C G36U U38A C42U] | 0.03
56 | GGCAGAGCUCAACAAAGCGUGGCAAAGGGGCUGUGGCUAGACUGGC [C15A U28G C45G] | 0.02
